From publication PMC4336329 (PLoS ONE, 2015)
Screen size: about 310,000 compounds; about 2,200 (0.71%) showed an effect of 50% or more. Effects have a minus sign here. The list shows a part of the results.

biological target: human ether-à-go-go-related gene (hERG) potassium channel (human, UniProt Q12809); test: primary screen, population patch clamp on CHO cells stably expressing hERG
Sequence (Q12809 whole entry, looked up): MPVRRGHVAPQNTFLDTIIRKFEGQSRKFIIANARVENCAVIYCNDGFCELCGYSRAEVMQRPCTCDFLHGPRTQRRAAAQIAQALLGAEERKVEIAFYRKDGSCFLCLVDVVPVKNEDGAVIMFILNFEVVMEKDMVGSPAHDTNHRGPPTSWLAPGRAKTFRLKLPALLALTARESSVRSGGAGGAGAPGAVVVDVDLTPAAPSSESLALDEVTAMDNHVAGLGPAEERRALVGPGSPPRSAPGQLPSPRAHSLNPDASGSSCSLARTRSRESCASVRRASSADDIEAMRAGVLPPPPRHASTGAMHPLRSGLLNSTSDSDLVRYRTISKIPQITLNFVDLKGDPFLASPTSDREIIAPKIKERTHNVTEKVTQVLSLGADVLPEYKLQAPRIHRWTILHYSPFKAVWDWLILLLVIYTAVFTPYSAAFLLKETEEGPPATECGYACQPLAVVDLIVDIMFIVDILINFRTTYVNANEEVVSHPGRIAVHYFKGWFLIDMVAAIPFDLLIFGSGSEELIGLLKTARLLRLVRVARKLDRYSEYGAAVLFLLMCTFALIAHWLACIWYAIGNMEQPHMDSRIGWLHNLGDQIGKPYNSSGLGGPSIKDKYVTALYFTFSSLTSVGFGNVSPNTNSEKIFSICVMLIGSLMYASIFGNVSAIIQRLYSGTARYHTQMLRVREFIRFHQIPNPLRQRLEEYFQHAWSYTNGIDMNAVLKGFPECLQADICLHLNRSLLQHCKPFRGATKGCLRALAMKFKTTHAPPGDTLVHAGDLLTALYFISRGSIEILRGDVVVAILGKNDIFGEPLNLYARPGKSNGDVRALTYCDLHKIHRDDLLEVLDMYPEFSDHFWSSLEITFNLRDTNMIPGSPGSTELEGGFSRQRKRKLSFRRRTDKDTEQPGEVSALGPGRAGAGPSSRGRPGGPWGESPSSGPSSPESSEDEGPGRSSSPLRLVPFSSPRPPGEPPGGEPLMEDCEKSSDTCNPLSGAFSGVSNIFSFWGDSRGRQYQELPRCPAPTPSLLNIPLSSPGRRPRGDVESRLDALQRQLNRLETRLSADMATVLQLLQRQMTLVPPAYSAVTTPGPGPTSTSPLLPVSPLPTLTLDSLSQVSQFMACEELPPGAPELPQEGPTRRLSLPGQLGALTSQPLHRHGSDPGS

Row | Structure (SMILES) | hERG current change (%, negative = inhibition) at 1uM
1 | Cc1ccc(NC(=O)c2nc[nH]c2C(=O)N2CCCCC2)c(C(=O)c2ccccc2)c1 | 6.56%
2 | O=C(CSc1ccc2c(c1)OCCO2)Nc1ccc2c(c1)OCO2 | 2.4%
3 | C=CCOC(=O)C1=C(C)NC(=O)NC1C1CC=CCC1 (stereo not shown) | 11.3%
4 | O=C(Oc1ccc(F)cc1)c1cccnc1 | 13.9%
5 | COc1ccc(NC(=O)CSc2nc3ccccc3c(=O)n2CCCN2CCCCC2)c(OC)c1 | -27.7%
6 | COc1cc(NC(=O)CSc2c3c(nc4ccccc24)CCC3)cc(OC)c1OC | 6.55%
7 | CCCSc1nnc(CNS(=O)(=O)c2ccc(C)cc2)n1C | 7.18%
8 | O=C(CN1C(=O)C2C3CCC(C3)C2C1=O)OCC(=O)c1ccccc1 (stereo not shown) | 5.04%
9 | CC(=O)NC(CC(=O)c1ccc([N+](=O)[O-])cc1)C(Cl)(Cl)Cl (stereo not shown) | -8.69%
10 | Cc1cc(C(=O)CN2C(=O)C(=O)N(C3CCCC3)C2=O)c(C)n1-c1ccc(F)cc1 | 5.93%
11 | N#Cc1ccc2ccn(CC(=O)NC3CCCCC3)c2c1 | 11.6%
12 | C=CCn1c2c(c(=O)[nH]c1=S)CN(C(C)c1ccccc1)CN2 (stereo not shown) | 15.7%
13 | COc1ccc(-c2[nH]c(-c3ccccc3)nc2SCC(=O)NC2CCCC2)cc1 | 7.57%
14 | Cc1ccc(-c2cc(=O)c3cc(Cl)ccc3[nH]2)cc1 | 12.9%
15 | Cc1nc2ccc(C(=O)Nc3ccc4nc[nH]c4c3)cc2[nH]1 | 9.4%
16 | COc1ccccc1NS(=O)(=O)c1cn(C)cn1 | 10.3%
17 | CC(=O)c1ccc(OCCCC(=O)N2CCN(S(=O)(=O)c3cccs3)CC2)cc1 | -1.02%
18 | CC(CCc1ccccc1)NC(=O)COC(=O)c1ccc(NC(N)=O)cc1 (stereo not shown) | 10.7%
19 | Cc1nc2c(c(-c3ccccc3)c1C#N)C(=O)c1ccccc1-2 | 12.5%
20 | COc1ccc(-c2noc(C3CCCN(C(=O)c4ccccc4C)C3)n2)cc1 (stereo not shown) | 14%
21 | c1csc(-c2nc(-c3ccncc3)no2)c1 | 13.5%
22 | COc1ccccc1NC(=O)COC(=O)C1CCN(/C=C/C(=O)C(F)(F)F)CC1 | -25.2%

Row | Structure (SMILES) | hERG current change (%, negative = inhibition) at 1uM
23 | CCc1ccc(C2C(C#N)=C(N)OC3=C2C(=O)CCC3)s1 (stereo not shown) | 10.4%
24 | O=C(CSc1nc2ncc(Cl)cc2[nH]1)c1c[nH]c2ccccc12 | 11.8%
25 | O=C(O)c1cccc2c3c([nH]c12)CCCC3 | 16.3%
26 | CCOC(=O)CC1(NC(=O)C2CCC(=O)N(Cc3ccccc3OC)C2)CCCCC1 (stereo not shown) | -5.96%
27 | CC(=O)N1CCc2cc(Br)cc(S(=O)(=O)N3CCCCC3)c21 | 14.2%
28 | CCCNS(=O)(=O)c1cccc2cccnc12 | 1.61%
29 | CC(C)(C)C(=O)Nc1ccc(S(=O)(=O)N2CCC(c3nc4ccccc4[nH]3)CC2)cc1 | 13.9%
30 | CN(c1ccc(Cl)cc1)S(=O)(=O)c1nnc(NC(=O)C(C)(C)C)s1 | 7.32%
31 | Cc1cc(C)nc(NC(N)=NC2CCCCC2)n1 | -0.302%
32 | O=c1c(C=Nc2cccnc2Cl)c(O)n(CCCCl)c(=O)n1C1CCCCC1 | 9.45%
33 | Cc1cc(Nc2ccc(O)cc2)ccc1N | 9.97%
34 | Cc1ccc(S(=O)(=O)CCC(=O)N2CCN(c3ccc([N+](=O)[O-])cc3)CC2)cc1 | -49.9%
35 | COc1ccccc1C(=O)COC(=O)CN1C(=O)NC2(CCCC2)C1=O | 17.2%
36 | COc1ccc(S(=O)(=O)N2c3cc(Cl)ccc3Oc3nc4ccccc4nc32)cc1 | 12.7%
37 | COC(C(=O)N/N=C(\C)c1ccc(O)cc1)c1ccccc1 (stereo not shown) | 5.44%
38 | COc1ccccc1Oc1cn[nH]c1-c1ccc(O)cc1O | 5.3%
39 | COc1ccc(NC(=O)N2CCCC(C(=O)Nc3cccc(C)c3C)C2)cc1 (stereo not shown) | 13.8%
40 | CC(=O)Nc1ccc(S(=O)(=O)N2CCN(C(=O)c3ncoc3-c3ccccc3F)CC2)cc1 | 13.2%
41 | COc1cccc(NC(=O)[C@@H](NC(=O)N2CCn3c2nc2ccccc23)C(C)C)c1 | 13.9%
42 | NC(=O)Cc1ccc(C(=O)c2ccc(F)cc2)s1 | 15.9%
43 | CCOC(=O)C1=c2s/c(=C\c3cccnc3)c(=O)n2C(N)=C(C(=O)OC)C1c1cccnc1 (stereo not shown) | 9.84%
44 | O=C(N/N=C/c1coc2ccccc2c1=O)c1cccc([N+](=O)[O-])c1 | 16.9%

Row | Structure (SMILES) | hERG current change (%, negative = inhibition) at 1uM
45 | O=C(NCc1ccco1)C1CCN(S(=O)(=O)c2ccccc2C(F)(F)F)CC1 | 12.6%
46 | O=C1C2CC=CCC2C(=O)N1c1n[nH]c(-c2ccccc2)n1 (stereo not shown) | -0.784%
47 | O=C1CCCN1CCCNC(=S)Nc1ccccc1Cl | 6.58%
48 | Cc1cccc2c(=O)cc(C)n(CC(N)=O)c12 | 12.7%
49 | C/C(=N\NC(=O)c1nnn(-c2nonc2N)c1CN(C)c1ccccc1)c1ccc(O)cc1 | 12.7%
50 | COc1ccc(C(=O)NC(C)c2nnc(SCc3ccc(Cl)c(Cl)c3)n2C)cc1 (stereo not shown) | 12%
51 | Cc1sc2ncn(CC(=O)N3CCC4(CC3)OCCO4)c(=O)c2c1C | 10.9%
52 | CC1(C)N=C(N)N=C(N)N1c1ccc(Oc2ccc(Cl)cc2)c(Cl)c1.Cl | 9.79%
53 | Oc1ccc(Cl)cc1Nc1nc(NCC2CCCO2)c2ccccc2n1 (stereo not shown) | 17.6%
54 | CCN(CCCNC(=O)c1[nH]c(C)c(C(C)=O)c1C)c1ccccc1 | 6.49%
55 | COc1ccc(C(=O)N2CCCC(C(=O)c3ccccc3OC)C2)cc1OC (stereo not shown) | 5.31%
56 | CCc1nnc(NC(=O)CSc2nnc3c(n2)[nH]c2ccccc23)s1 | 0.844%
57 | C=CCN(CC=C)Cc1c(O)ccc2c(=O)c(-c3ccccc3)coc12 | 4.8%
58 | COc1ccc(-c2noc(CSc3nc(-c4ccccc4)cc(=O)[nH]3)n2)cc1 | 8.15%
59 | Cc1cc(NS(=O)(=O)c2ccc(NC(=O)/C=C/c3ccccc3Cl)cc2)no1 | 14.4%
60 | COc1ccc(S(=O)(=O)N2CCN(CC(=O)Nc3cccc(OC)c3)CC2)cc1 | -4.12%
61 | CC(C)(C)NC(=O)c1c(F)c(F)c(F)c(F)c1F | 4.34%
62 | COc1ccc(/C=N/n2c(=O)[nH]c3c([nH]c4ccc(Cl)cc43)c2=O)cc1CN1CCCCC1 | 14%
63 | O=C(Cn1cnc2ccccc21)Nc1cccc(S(=O)(=O)N2CCCC2)c1 | 7.93%
64 | CCn1c(=O)cc(OCC(=O)NCCCN2CCC(C)CC2)c2ccccc21 | -1.7%
65 | CCCCCCCCN[C@H](C)[C@@H](O)c1ccc(SC(C)C)cc1 | 4.1%
66 | COc1ccc(N(C(=O)c2ccc(Cl)cc2)C2=CC3CCC(C2)N3C)cc1.Cl (stereo not shown) | -76.1%

Row | Structure (SMILES) | hERG current change (%, negative = inhibition) at 1uM
67 | O=C(Nc1ccc(F)cc1)c1ccc(COc2ccccc2)cc1 | -8.32%
68 | COc1ccc(NC(=O)N2CCCC2C(=O)Nc2ccccc2F)cc1 (stereo not shown) | 8.75%
69 | CCOc1ccccc1C(=O)NC(C(=O)Nc1ccccc1N1CCOCC1)C(C)C (stereo not shown) | -9.37%
70 | CC(=O)Nc1ccccc1NC(=O)C/C(C)=N/NC(=O)c1cccnc1 | 10.9%
71 | CCC(CC)c1nnc(NC(=O)/C=C/c2ccco2)s1 | 5.49%
72 | Cc1ccc(C(=O)OCC(=O)N(CCc2ccccc2)Cc2ccccc2)cc1S(=O)(=O)N1CCOCC1 | -2.03%
73 | Cc1c(C)n(Cc2ccc(F)cc2)c2ccc(C(=O)N3CCN(c4ccccn4)CC3)cc12 | 14.6%
74 | CCN1CCN(C(=O)CSc2cc(=O)n(C)c3ccccc23)CC1 | 6.43%
75 | C=CCN1C(=O)C2(C(C(=O)OCC)=C(N)Oc3ccccc32)c2c1c1ccccc1oc2=O (stereo not shown) | 6.92%
76 | CCS(=O)(=O)Nc1ccc(C(=O)CC2(O)C(=O)Nc3ccccc32)cc1 (stereo not shown) | 4.37%
77 | COCC(=O)Nc1cc([N+](=O)[O-])ccc1C | 10.9%
78 | N#Cc1ccc(Oc2ncccn2)cc1 | 12.1%
79 | O=C1OC(c2ccco2)=N/C1=C\c1ccc(-c2cccc(C(F)(F)F)c2)o1 | 11.7%
80 | CN(C)CCCN(C(=O)c1ccc(C(=O)c2ccccc2)cc1)c1nc2cc3c(cc2s1)OCCO3.Cl | -7.91%
81 | Cn1cnc2cc(NC(=O)c3cccs3)ccc21 | 1.38%
82 | Cc1sc2c(c1C)CN(C1CC(C)(C)NC(C)(C)C1)CN2C(=O)c1ccco1 | -4.73%
83 | Cc1nc(SCC(=O)NCC2CCCO2)c2oc3ccccc3c2n1 (stereo not shown) | 14.4%
84 | COCCN(C(C)=O)c1nnc(-c2ccccn2)s1 | 7.71%
85 | CNC(=S)NNC(=O)c1ccc(=O)n(Cc2ccc(Cl)cc2Cl)c1 | 29%
86 | O=C(O)c1cccc(COc2ccc3c(c2)CCC3)c1 | 12.9%
87 | Cc1ccc(F)c([C@H]2[C@@H]3C=CCC[C@@]3(C)C(=O)N2Cc2ccccc2)c1 | 10.3%
88 | COc1ccc(NC(=O)CCn2cccc2)c(OC)c1 | 14.8%
